The values that follow come from paper PMC5836133.

The list shows a part of the results. At the low end of the ranking the order means little.

The experiment relates to T1, GST-NbGlk1(82-244).
T1 sequence: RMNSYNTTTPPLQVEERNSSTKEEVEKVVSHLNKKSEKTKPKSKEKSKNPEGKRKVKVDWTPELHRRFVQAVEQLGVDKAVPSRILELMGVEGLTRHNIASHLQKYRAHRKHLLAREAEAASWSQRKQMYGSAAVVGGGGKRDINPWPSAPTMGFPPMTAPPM
The experiment can be described thus: protein-binding microarray.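 Note: rank-based score ranging −0.5 to +0.5 with E above 0.45 taken as significant binding.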 Conditions: NbGlk1 is a Golden2-like transcription factor of Nicotiana benthamiana; high values mean tight binding; most listed sequences are background and not binding sites; double strand, one strand shown.
As to AGCACCAT, the binding signal is -0.195 E-score.

In the case of AACGAAAA, the binding signal amounted to 0.0746 E-score.

Consider AGCGTTTC, for which the binding signal is -0.0549 E-score.

Consider AATAACGT, for which the binding signal was determined as 0.104 E-score.

In turn, ACTACATC came in with a binding signal of 0.0631 E-score.

On to AACTCCGT, for which the binding signal was -0.0965 E-score.

For ATACTTTG, the binding signal amounted to 0.0712 E-score.

AAGTGTAA: the binding signal stood at 0.0974 E-score.

For the sequence ATAAATAC, the binding signal came to 0.0649 E-score.

Take AATTTTGA: the binding signal worked out at 0.141 E-score.

AGATGTCG yielded a binding signal of 0.0628 E-score.

Turning to ACAATTCT, the binding signal worked out at 0.124 E-score.

For the sequence ATTTCGTC, the binding signal came out at 0.303 E-score.

For the sequence CAGCGGAC, the binding signal was -0.0728 E-score.

For AATTAACT, the binding signal was 0.0439 E-score.

Take ACCCGGGG: the binding signal is -0.111 E-score.

Take AGTGTCAG: the binding signal is 0.00478 E-score.

In turn, ACATTACA displayed a binding signal of 0.1 E-score.

Take AGTAAGTC: the binding signal is -0.171 E-score.

Turning to CAATTAGA, the binding signal amounted to 0.108 E-score.

ACTAATGG came in with a binding signal of 0.0235 E-score.

ATCGTTCA yielded a binding signal of 0.131 E-score.

Sequence CACTTACG yielded a binding signal of 0.0455 E-score.

For the sequence ACGTCGCA, the binding signal was -0.0568 E-score.

On to ACCCTTAT, for which the binding signal was -0.149 E-score.

On to ACTTAATC, for which the binding signal worked out at 0.0719 E-score.

Regarding AACCAAGG, the binding signal is -0.143 E-score.

As for ACGATCCA, the binding signal came to 0.12 E-score.

Take CACAAGTG: the binding signal is -0.205 E-score.

In turn, CACTACAC registered a binding signal of 0.0378 E-score.

For the sequence ATACCTCA, the binding signal came to 0.0717 E-score.

ACACCACA: the binding signal was found to be 0.00957 E-score.

In the case of ACCTGTCC, the binding signal was -0.197 E-score.

With AGGCGAAA, the binding signal was -0.0654 E-score.

Take CAAAACGC: the binding signal is -0.0779 E-score.

ACTCCACC: the binding signal was -0.189 E-score.

As for AACTGCAC, the binding signal was -0.0858 E-score.

As for ACTTAGCT, the binding signal was -0.123 E-score.

Sequence ACAAACAC had a binding signal of 0.0713 E-score.

On to ACCCTATG, for which the binding signal is -0.143 E-score.

Turning to AACGGCAA, the binding signal is 0.0308 E-score.

The sequence CACTCATA registered a binding signal of 0.00605 E-score.

Sequence ATCCTGGG returned a binding signal of 0.119 E-score.

Sequence AAATTAGT returned a binding signal of 0.117 E-score.

CAATTTCC returned a binding signal of 0.106 E-score.

As for AGTATGGG, the binding signal is -0.00145 E-score.

Sequence AATTCATA had a binding signal of 0.148 E-score.

For the sequence ATCGGTTG, the binding signal is -0.0354 E-score.

For the sequence AAAAAAGT, the binding signal is -0.00117 E-score.

For the sequence AGTGGAAT, the binding signal was determined as 0.189 E-score.

AGGACTCG: the binding signal is -0.224 E-score.

As to AAGTGTCT, the binding signal is -0.0299 E-score.

Sequence AGAAACGA came in with a binding signal of 0.0428 E-score.

ACGTCCTC: the binding signal was -0.248 E-score.

As for ATAGGCCA, the binding signal is -0.173 E-score.

Regarding AGTACATC, the binding signal was -0.0227 E-score.

As to ATCAATGA, the binding signal was determined as 0.142 E-score.

With ACTTAGTA, the binding signal is -0.0258 E-score.

AGTGATCC came in with a binding signal of 0.0245 E-score.

For the sequence ATCCAACC, the binding signal amounted to 0.155 E-score.

AGAATCAA: the binding signal was determined as 0.342 E-score.

AAGCGGCT: the binding signal is -0.31 E-score.

As for ACTGTAAG, the binding signal was -0.102 E-score.

For ATCACCCG, the binding signal amounted to 0.0161 E-score.

In turn, AATTACAG gave a binding signal of 0.106 E-score.

For CAGCACAC, the binding signal was -0.291 E-score.

Consider CACCCGTC, for which the binding signal was -0.173 E-score.

As to AACGTGAA, the binding signal is -0.0439 E-score.

Take AAGTCCTC: the binding signal was -0.225 E-score.

As for AAAGGGTA, the binding signal was -0.148 E-score.

Take AGTGACGA: the binding signal is 0.00185 E-score.

ATATTTCC came in with a binding signal of 0.369 E-score.

As to ATCTCCAA, the binding signal was 0.342 E-score.

Take ACGTGCCG: the binding signal is -0.147 E-score.

Regarding AACAGGTA, the binding signal is -0.0243 E-score.

For the sequence ACGACGTA, the binding signal is -0.00586 E-score.

For the sequence AATAGGGT, the binding signal was -0.133 E-score.

As to AGACGCAG, the binding signal was -0.154 E-score.

In the case of ATGACGAG, the binding signal was -0.102 E-score.

Consider ATTAGTCA, for which the binding signal came out at 0.0301 E-score.

On to AGCTCAGC, for which the binding signal was -0.244 E-score.

Consider ATACAATC, for which the binding signal was 0.274 E-score.

CAAGAATC displayed a binding signal of 0.385 E-score.

For AATTGTAT, the binding signal amounted to 0.111 E-score.

CAAATTGG: the binding signal was -0.0553 E-score.

On to CAAAACTC, for which the binding signal was -0.116 E-score.

ATGTTGGG: the binding signal was -0.0347 E-score.

As to ACACATTA, the binding signal worked out at 0.144 E-score.

In the case of AAACTACA, the binding signal is -0.0503 E-score.

For the sequence AGTTTGTC, the binding signal is -0.107 E-score.

As for ACGTGCTA, the binding signal was -0.0432 E-score.

The sequence ACCCAGAG had a binding signal of 0.00787 E-score.

Sequence CAATATCC registered a binding signal of 0.337 E-score.

Regarding AAATCGAT, the binding signal was 0.336 E-score.

On to AACCTAAC, for which the binding signal was -0.037 E-score.

Take AGCGCCGG: the binding signal is -0.259 E-score.

As to ATGTGGAG, the binding signal was found to be 0.0128 E-score.

In the case of AGCCCGCC, the binding signal was -0.268 E-score.

As for AACCGGGT, the binding signal was -0.137 E-score.

Turning to AGCAATAG, the binding signal was -0.138 E-score.

Sequence AATGATAT had a binding signal of 0.224 E-score.

Consider AAGAGGGA, for which the binding signal was -0.225 E-score.

As to AGTGAGCC, the binding signal was -0.281 E-score.

Take CACGCATA: the binding signal is -0.0545 E-score.

Regarding ACTAATCA, the binding signal came to 0.0498 E-score.

In the case of AACTAGGT, the binding signal was -0.0661 E-score.

With ACCGTCCG, the binding signal was 0.0565 E-score.

For AGCGTGGC, the binding signal is -0.213 E-score.

Consider AGAGCGAC, for which the binding signal is -0.188 E-score.

On to AAATAAAC, for which the binding signal amounted to 0.0819 E-score.

On to AGAAATGA, for which the binding signal is -0.0745 E-score.

For AATTCCGT, the binding signal turned out to be 0.185 E-score.

For the sequence ACAAGTAC, the binding signal is -0.11 E-score.

Sequence ACCATCTA gave a binding signal of 0.00644 E-score.

In turn, ACAATCAC came in with a binding signal of 0.186 E-score.

ATAAGCTG: the binding signal is -0.0233 E-score.

AACAGGCC: the binding signal is -0.181 E-score.

Turning to AGTCGATA, the binding signal came to 0.102 E-score.

Consider AGATCTAG, for which the binding signal stood at 0.349 E-score.

As for AAGCTGTC, the binding signal was -0.111 E-score.

Consider AATATTAT, for which the binding signal was 0.211 E-score.

AGCGATCG came in with a binding signal of 0.204 E-score.

For AGGTAAGA, the binding signal came out at 0.0118 E-score.

Regarding AAATGAAA, the binding signal came out at 0.182 E-score.

For AGCCTGGC, the binding signal was -0.139 E-score.

For the sequence ACCAGCGT, the binding signal was -0.17 E-score.

With ATAACCAT, the binding signal is -0.00598 E-score.

For the sequence AACCTGCG, the binding signal is -0.239 E-score.

For the sequence ACTAGCTA, the binding signal was -0.123 E-score.

AGACTGCT: the binding signal was -0.209 E-score.

For the sequence ACTGCTTG, the binding signal is -0.0604 E-score.

Regarding AATGTGCC, the binding signal was -0.122 E-score.

As for ACTGGTTG, the binding signal is -0.185 E-score.

On to ACATATGT, for which the binding signal is -0.0733 E-score.

Regarding ACGCCGGC, the binding signal was -0.188 E-score.

Consider ATAGGCGG, for which the binding signal is -0.0899 E-score.

In the case of ACAAGTAG, the binding signal is -0.0386 E-score.

AACGTAAA: the binding signal was found to be 0.148 E-score.

Regarding ATCTGAAC, the binding signal turned out to be 0.342 E-score.

As for ACGTAAAG, the binding signal was 0.0508 E-score.

As to AACGTAAG, the binding signal is -0.0364 E-score.

Consider AGCCCCTC, for which the binding signal is -0.262 E-score.

As to AGCTCAAT, the binding signal is -0.212 E-score.

The sequence AATCCGGG yielded a binding signal of 0.368 E-score.

Consider AATCACTG, for which the binding signal was 0.269 E-score.

Take AACTCACG: the binding signal is -0.14 E-score.

Take ATAGGACG: the binding signal is -0.133 E-score.

Regarding ATAACCGA, the binding signal worked out at 0.0344 E-score.

In turn, ATCCATTA gave a binding signal of 0.321 E-score.

As to AGCGGATG, the binding signal is -0.084 E-score.

AAAAGTTG: the binding signal is -0.0551 E-score.

For the sequence AGTCTCAT, the binding signal is -0.127 E-score.

Take AGTTACCC: the binding signal was -0.113 E-score.

Sequence ATTGAACG gave a binding signal of 0.0185 E-score.

On to AGGGATTG, for which the binding signal stood at 0.248 E-score.

For the sequence AGTGTCGG, the binding signal was -0.181 E-score.

Turning to ATAATATC, the binding signal is 0.347 E-score.

For ATTGAACC, the binding signal came to 0.0413 E-score.

Turning to AGCTGATG, the binding signal was -0.194 E-score.

As to AGACTCCA, the binding signal was -0.175 E-score.

With ACAGCCCC, the binding signal was -0.256 E-score.

Consider ACAATACC, for which the binding signal turned out to be 0.048 E-score.

For the sequence ACTCGTGA, the binding signal is -0.0369 E-score.

CAATCTGC registered a binding signal of 0.305 E-score.

As to AGTCTAAA, the binding signal was -0.0385 E-score.

AGGGTAAC: the binding signal was -0.0404 E-score.

Consider ATTTCCGA, for which the binding signal was found to be 0.341 E-score.

Consider CAGATAAA, for which the binding signal was -0.0463 E-score.

Turning to AGAGACAA, the binding signal is -0.0416 E-score.

Regarding ATGCTCAA, the binding signal was -0.0881 E-score.

In turn, AATCCCTA registered a binding signal of 0.281 E-score.

ACAGGCCT: the binding signal is -0.128 E-score.
